We go through 40 compounds from the antibiotic and cytotoxicity screens of Wong et al. (2023).

SMILES strings stand for the structures. This is one part of the list.

One experiment concerns HepG2. The experiment in a line: cytotoxicity call (relative viability < 0.9). The conditions noted are these: 10 µM.
With `CNC(=O)CN(C#N)c1nc(C)cc(C)n1`, the cytotoxicity call was “inactive”.

With `C[C@@H]1CCCCO[C@H](CN(C)C(=O)Nc2ccccc2)[C@H](C)CN([C@@H](C)CO)C(=O)c2cc(NC(=O)Nc3ccc(C(F)(F)F)cc3)ccc2O1`, the cytotoxicity call is “inactive”.

Regarding `IC(I)I`, the cytotoxicity call was “inactive”.

With `C[C@@H]1CCCCO[C@@H](CN(C)Cc2ccc(C(=O)Nc3ccccc3N)cc2)[C@@H](C)CN([C@H](C)CO)C(=O)c2cc(NC(=O)NC3CCCCC3)ccc2O1`, the cytotoxicity call was “inactive”.

Consider `C[C@H](CO)N1C[C@H](C)[C@H](CN(C)CC2CCOCC2)Oc2cc(-c3cccnc3)ccc2S1(=O)=O`, for which the cytotoxicity call was “inactive”.

On to `COc1ccc(S(=O)(=O)N(C)C[C@@H]2Oc3c(NS(=O)(=O)c4ccc(F)cc4)cccc3C(=O)N([C@H](C)CO)C[C@@H]2C)cc1`, for which the cytotoxicity call is “inactive”.

As for `COc1ccc(NC(=O)N(C)C[C@H]2Oc3ccc(NC(=O)Nc4cccc5ccccc45)cc3CC(=O)N([C@H](C)CO)C[C@H]2C)cc1`, the cytotoxicity call is “inactive”.

Consider `C[C@H](CO)N1C[C@H](C)[C@@H](CN(C)C(=O)CCCN(C)C)OCCCC[C@H](C)Oc2ccc(NC(=O)Nc3cccc4ccccc34)cc2C1=O`, for which the cytotoxicity call was “inactive”.

With `COCC(=O)N(C)C[C@H]1Oc2cc(C#Cc3ccccc3)ccc2S(=O)(=O)N([C@@H](C)CO)C[C@H]1C`, the cytotoxicity call was “inactive”.

Take `C[C@H](CO)N1C[C@H](C)[C@H](CN(C)C(=O)NC2CCCCC2)Oc2ccc(NC(=O)Cn3cnnn3)cc2CC1=O`: the cytotoxicity call was “inactive”.

As for `Cn1nc(CCO)cc1C(F)(F)F`, the cytotoxicity call was “inactive”.

Turning to `COC1=C(OC)C(=O)C(CCCCCCCCCC[P+](c2ccccc2)(c2ccccc2)c2ccccc2)=C(C)C1=O`, the cytotoxicity call was “active”.

Consider `C[C@H]1CCCCO[C@@H](CN(C)S(=O)(=O)c2cccs2)[C@@H](C)CN([C@@H](C)CO)C(=O)c2cc(NC(=O)NC3CCCCC3)ccc2O1`, for which the cytotoxicity call is “inactive”.

Regarding `C[C@@H]1CCCCO[C@H](CN(C)C(=O)CCCN(C)C)[C@@H](C)CN([C@H](C)CO)C(=O)c2cc(NC(=O)Nc3cccc4ccccc34)ccc2O1`, the cytotoxicity call is “inactive”.

In the case of `COc1cccc(S(=O)(=O)N(C)C[C@H]2OCc3cnnn3CCCC(=O)N([C@@H](C)CO)C[C@H]2C)c1`, the cytotoxicity call was “inactive”.

Regarding `O=C([C@H]1N[C@H]2c3ccc(-c4ccc(F)cc4)c(=O)n3C[C@H]2[C@@H]1CO)N1CCOCC1`, the cytotoxicity call was “inactive”.

The test system of a further experiment is S. aureus RN4220. The experiment in a line: growth inhibition call (relative growth <= 0.2). The conditions noted are these: 50 µM.
Consider `NC(=O)CSc1nc(N)cc(N)n1`, for which the growth inhibition call was “inactive”.

Take `COc1ccc([C@@H]([C@H](Cc2ccccc2)OC(C)=O)N2C[C@@H](CC(=O)N(C)C)[C@@H]3C(=NO[C@H]3c3ccccc3)[C@@H]2Cc2ccccc2)cc1`: the growth inhibition call was “inactive”.

As for `C[C@H](CO)N1C[C@H](C)[C@H](CN(C)S(=O)(=O)c2cccs2)Oc2ccc(NS(=O)(=O)c3cccs3)cc2CC1=O`, the growth inhibition call was “inactive”.

`CCNC(=O)C[C@@H]1CC[C@H]2[C@@H](COC[C@@H](O)CN2S(=O)(=O)c2ccc(Oc3ccccc3)cc2)O1`: the growth inhibition call is “inactive”.

In the case of `COc1ccc(NC(=O)Nc2ccc3c(c2)C(=O)N([C@H](C)CO)C[C@H](C)[C@H](CN(C)Cc2ccncc2)OCCCC[C@H](C)O3)cc1`, the growth inhibition call was “inactive”.

As for `C[C@@H]1CN([C@@H](C)CO)C(=O)Cc2cc(NC(=O)CCC(F)(F)F)ccc2O[C@@H]1CN(C)S(C)(=O)=O`, the growth inhibition call was “inactive”.

Regarding `O=C(C[C@@H]1C=C[C@H](NC(=O)c2cccnc2)[C@@H](CO)O1)NCCN1CCCCC1`, the growth inhibition call was “inactive”.

`N=C1NCCC(C2NC(=O)C(=CNC(N)=O)NC(=O)C(CNC(=O)CC(N)CCCN)NC(=O)C(CO)NC(=O)C(N)CNC2=O)N1.O=S(=O)(O)O` (stereo unspecified): the growth inhibition call is “inactive”.

For `NC(=O)c1ccnc(Cl)c1`, the growth inhibition call is “inactive”.

Regarding `C[C@H](CO)N1C[C@H](C)[C@H](CN(C)C(=O)CCC(F)(F)F)OCCCC[C@H](C)Oc2ccc(NC(=O)Nc3ccccc3)cc2C1=O`, the growth inhibition call is “inactive”.

As to `O=C(C[C@@H]1CC=CCC[C@H](Cc2ccc(F)cc2)C(=O)OC[C@H](Cc2c[nH]c3ccccc23)NC1=O)N[C@@H](CO)Cc1ccccc1`, the growth inhibition call is “inactive”.

As to `CCCC(=O)Nc1ccc2c(c1)C(=O)N(C)[C@H]1CC[C@H](CC(=O)NCCN3CCCCC3)O[C@@H]1CO2`, the growth inhibition call was “inactive”.

`COCC#Cc1cnc2c(c1)C(=O)N([C@H](C)CO)C[C@@H](C)[C@H](CN(C)C(=O)Nc1ccccc1OC)O2`: the growth inhibition call is “inactive”.

For `CCSc1ncnc(N)n1`, the growth inhibition call was “inactive”.

As for `C[C@H](CO)N1C[C@H](C)[C@H](CN(C)Cc2ccc(-c3ccccc3)cc2)Oc2ccc(NC(=O)Nc3ccc4c(c3)OCO4)cc2CC1=O`, the growth inhibition call was “inactive”.

On to `Cc1ccc(-c2cnc3c(c2)C(=O)N([C@@H](C)CO)C[C@H](C)[C@@H](CN(C)C(=O)Cc2ccncc2)O3)cc1`, for which the growth inhibition call is “inactive”.

`CC(=O)N1CCC(N)CC1`: the growth inhibition call was “inactive”.

For the compound `C[C@@H]1CN([C@H](C)CO)C(=O)c2cc(NC(=O)Nc3ccc(C(F)(F)F)cc3)ccc2O[C@H]1CN(C)Cc1ccccc1`, the growth inhibition call is “inactive”.

With `C[C@H]1CN([C@@H](C)CO)C(=O)c2cccc(NC(=O)Nc3ccc(C(F)(F)F)cc3)c2O[C@H]1CN(C)S(=O)(=O)c1ccc(F)cc1`, the growth inhibition call is “inactive”.

Regarding `CCC(=O)N(C)C[C@@H]1Oc2ncc(C#C[C@@H](C)O)cc2C(=O)N([C@H](C)CO)C[C@H]1C`, the growth inhibition call was “inactive”.

Consider `C[C@@H]1CN([C@@H](C)CO)C(=O)CCCn2nncc2CO[C@@H]1CN(C)S(=O)(=O)c1ccc(-n2cccn2)cc1`, for which the growth inhibition call is “inactive”.

On to `C[C@H](CO)N1C[C@H](C)[C@@H](CN(C)S(=O)(=O)c2ccccc2)Oc2ccc(NS(=O)(=O)c3cn(C)cn3)cc2C1=O`, for which the growth inhibition call is “inactive”.

On to `CCN(CC)C(=O)N1CCN(C)CC1.O=C(O)CC(O)(CC(=O)O)C(=O)O`, for which the growth inhibition call is “inactive”.

For the compound `Cc1cc(C)c(-c2ccc(NC(=O)[C@H](Cc3ccc(C(=O)NCCS(=O)(=O)O)cc3)c3ccc(-c4ccc(C(C)(C)C)cc4)cc3)cc2)c(C)c1`, the growth inhibition call is “inactive”.

On to `CNC(=O)CN(C#N)c1nc(C)cc(C)n1`, for which the growth inhibition call is “inactive”.

Consider `C[C@@H]1CCCCO[C@H](CN(C)C(=O)Nc2ccccc2)[C@H](C)CN([C@@H](C)CO)C(=O)c2cc(NC(=O)Nc3ccc(C(F)(F)F)cc3)ccc2O1`, for which the growth inhibition call was “inactive”.

Turning to `IC(I)I`, the growth inhibition call was “inactive”.

For the compound `C[C@@H]1CCCCO[C@@H](CN(C)Cc2ccc(C(=O)Nc3ccccc3N)cc2)[C@@H](C)CN([C@H](C)CO)C(=O)c2cc(NC(=O)NC3CCCCC3)ccc2O1`, the growth inhibition call was “inactive”.

For `C[C@H](CO)N1C[C@H](C)[C@H](CN(C)CC2CCOCC2)Oc2cc(-c3cccnc3)ccc2S1(=O)=O`, the growth inhibition call was “inactive”.

As for `COc1ccc(S(=O)(=O)N(C)C[C@@H]2Oc3c(NS(=O)(=O)c4ccc(F)cc4)cccc3C(=O)N([C@H](C)CO)C[C@@H]2C)cc1`, the growth inhibition call is “inactive”.

Take `COc1ccc(NC(=O)N(C)C[C@H]2Oc3ccc(NC(=O)Nc4cccc5ccccc45)cc3CC(=O)N([C@H](C)CO)C[C@H]2C)cc1`: the growth inhibition call was “inactive”.

`C[C@H](CO)N1C[C@H](C)[C@@H](CN(C)C(=O)CCCN(C)C)OCCCC[C@H](C)Oc2ccc(NC(=O)Nc3cccc4ccccc34)cc2C1=O`: the growth inhibition call is “inactive”.

In the case of `COCC(=O)N(C)C[C@H]1Oc2cc(C#Cc3ccccc3)ccc2S(=O)(=O)N([C@@H](C)CO)C[C@H]1C`, the growth inhibition call is “inactive”.

As for `C[C@H](CO)N1C[C@H](C)[C@H](CN(C)C(=O)NC2CCCCC2)Oc2ccc(NC(=O)Cn3cnnn3)cc2CC1=O`, the growth inhibition call is “inactive”.

As for `Cn1nc(CCO)cc1C(F)(F)F`, the growth inhibition call was “inactive”.

For the compound `COC1=C(OC)C(=O)C(CCCCCCCCCC[P+](c2ccccc2)(c2ccccc2)c2ccccc2)=C(C)C1=O`, the growth inhibition call was “inactive”.

In the case of `C[C@H]1CCCCO[C@@H](CN(C)S(=O)(=O)c2cccs2)[C@@H](C)CN([C@@H](C)CO)C(=O)c2cc(NC(=O)NC3CCCCC3)ccc2O1`, the growth inhibition call is “inactive”.

Take `C[C@@H]1CCCCO[C@H](CN(C)C(=O)CCCN(C)C)[C@@H](C)CN([C@H](C)CO)C(=O)c2cc(NC(=O)Nc3cccc4ccccc34)ccc2O1`: the growth inhibition call was “inactive”.

For the compound `COc1cccc(S(=O)(=O)N(C)C[C@H]2OCc3cnnn3CCCC(=O)N([C@@H](C)CO)C[C@H]2C)c1`, the growth inhibition call was “inactive”.

Turning to `O=C([C@H]1N[C@H]2c3ccc(-c4ccc(F)cc4)c(=O)n3C[C@H]2[C@@H]1CO)N1CCOCC1`, the growth inhibition call is “inactive”.
